Data: publication PMC6750928
No constants are given. Whether binding was seen depends on the method and setting. Binding seen in cells or lysates may run through a third protein. Some results given as binding are weak or reduced against the parent protein; the word gives no strength.

Amino acid sequences for entries named in this document (tags omitted). Residues count along the entry.
UniProt O15218: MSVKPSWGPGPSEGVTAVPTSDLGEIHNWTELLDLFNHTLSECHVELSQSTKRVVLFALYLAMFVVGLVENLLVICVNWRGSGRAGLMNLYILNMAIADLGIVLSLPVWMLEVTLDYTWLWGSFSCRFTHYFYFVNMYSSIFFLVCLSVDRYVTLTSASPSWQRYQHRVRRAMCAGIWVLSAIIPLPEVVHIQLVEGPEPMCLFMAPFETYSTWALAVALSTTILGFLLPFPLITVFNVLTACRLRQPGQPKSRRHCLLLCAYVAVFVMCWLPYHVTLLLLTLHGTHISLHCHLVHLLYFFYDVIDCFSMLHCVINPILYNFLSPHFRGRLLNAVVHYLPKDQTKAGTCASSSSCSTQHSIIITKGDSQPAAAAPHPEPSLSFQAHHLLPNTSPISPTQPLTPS
UniProt O60895, residues 43-175: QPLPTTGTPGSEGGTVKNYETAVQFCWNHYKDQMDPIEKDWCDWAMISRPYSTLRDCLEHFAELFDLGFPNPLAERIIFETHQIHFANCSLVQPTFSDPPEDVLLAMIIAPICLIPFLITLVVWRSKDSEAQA

Target: G protein-coupled receptor 182 (human) (UniProt O15218)
Assay: proximity ligation; HEK293T cells cotransfected with HA-tagged GPCR and FLAG-tagged RAMP2, fixed with methanol (or formaldehyde), rabbit anti-HA and mouse anti-FLAG primary Abs, DuoLink In Situ Red; PLA puncta per cell

- binding: binds
Substance: Receptor activity-modifying protein 2 (from UniProt O60895 43-175)
